# In PubChem BioAssay AID759 (NMMLSC, 2007):
# Hit rate of the full screen: of about 190,000 compounds, about 270 (0.14%) were called active. The inconclusive results got no clear call from the source; some entries with a clear call stand among them for comparison.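 The calls were made as follows: active = GTP binding activity at least 20% away from the 100% baseline, either lowered as inhibitor or raised as activator; inconclusive = flagged as likely green fluorescent, judged across all proteins in the well; inactive = the rest.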
# Target: GTPase HRas (Homo sapiens) (UniProt P01112)
# Chain of UniProt P01112 (P01112 whole entry, looked up): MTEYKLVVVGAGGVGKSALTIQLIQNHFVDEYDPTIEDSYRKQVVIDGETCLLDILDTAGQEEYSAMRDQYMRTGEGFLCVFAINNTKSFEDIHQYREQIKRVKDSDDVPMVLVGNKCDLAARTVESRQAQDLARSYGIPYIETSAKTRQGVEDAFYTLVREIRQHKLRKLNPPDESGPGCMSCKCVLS
# Experiment: HRas wt fluorescent GTP binding changes, either direction – biochemical, wildtype, bead-based flow cytometry, multiplex, primary screen (AID 759);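 also: 0% = unlabeled GTP competition control and 100% = no-compound control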
# Details: GST-Ras wt beads, Bodipy-FL-GTP binding, at 10 µM, actives lie on both sides
row,Compound,GTP binding activity
1,O=C(N/C(=C/c1ccco1)C(=O)N1CCOCC1)c1cccs1,inconclusive: 93%
2,O=C(NCc1ccccc1)C1=C[C@@H](c2ccc(C(F)(F)F)cc2)C[C@@H](OCc2ccc(CO)cc2)O1,inconclusive: 94%
3,CN1C(=O)/C(=C\c2cc(Br)cs2)c2ccccc21,inconclusive: 91%
4,CCCOC(=O)c1c(NC(=O)CCC(=O)O)sc2c1CCCCC2,inactive: 83%
5,Cc1ccccc1C(=O)O/N=C(\c1ccccc1)c1ccccn1,inconclusive: 105%
6,COc1cccc(/C=N/Nc2nn3cnnc3c3ccccc23)c1,inconclusive: 62%
7,O=c1cnnc(Nc2cccc(F)c2)[nH]1,inconclusive: 99%
8,CN1CCN(CCCNC(=O)c2cn(C3CCCCC3)c(=O)c3c2c2ccccc2n3C)CC1,inconclusive: 102%
9,O=C(CCC1CCCN(C(=O)c2ccoc2)C1)NCc1ccccc1F (centres undefined),inactive: 95%
10,N#C/C(=C\Nc1ccccc1O)c1nc2ccccc2o1,inconclusive: 102%
11,CCOc1ccc(-c2ccc(SCC(=O)NCC3CCCO3)nn2)cc1 (centres undefined),inconclusive: 92%
12,Cc1cc(Br)ccc1OCCCCN1CCCCC1,inactive: 95%
13,CCCCN1C(=O)C2C(c3ccc(OC)cc3O)NC(CC(C)C)(C(=O)O)C2C1=O (centres undefined),inconclusive: 103%
14,O=C(NC(=S)Nn1cnc2c(cnn2-c2ccccc2)c1=O)c1ccc(Oc2ccccc2)cc1,inconclusive: 93%
15,CC(C)N(C(=O)CSc1nnnn1-c1ccc2c(c1)OCO2)C(C)C,inactive: 100%
16,Cc1ccc(-n2ncc3c(SCc4cccc(C)c4)ncnc32)cc1,inconclusive: 98%
17,Cc1ccc(CSc2nc3[nH]ncc3c(=O)[nH]2)cc1,active: 78%
18,Cc1ccc(NS(=O)(=O)c2cc(C(=O)Nc3cccc(N(C)S(C)(=O)=O)c3)ccc2C)c(C)c1,inconclusive: 100%
19,CCCCCCn1c(-c2cccs2)n[nH]c1=S,inconclusive: 87%
20,COc1cccc(-n2c(SCC(=O)NCCC3=CCCCC3)nc3n[nH]c(C)c3c2=N)c1,active: 73%

row,Compound,GTP binding activity
1,Cc1cc(C)c(-c2cc(NC(=O)CSc3nncn3C)n(-c3ccccc3)n2)cc1C,inconclusive: 102%
2,Cc1ccc(-c2cc(C(=O)Nc3nn[nH]n3)c3ccccc3n2)c(C)c1,inconclusive: 94%
3,O=C(NNC(=O)C1CCN(S(=O)(=O)c2cccc(C(F)(F)F)c2)CC1)C1CC1,inconclusive: 96%
4,CCOC(=O)c1ccc2ncc(-c3ccccc3)nc2c1,inconclusive: 80%
5,O=c1[nH]c(CN2CCCC2)nc2sc3c(c12)CCC3,inconclusive: 172%
6,COc1cc2c3nnc(-c4ccc(F)cc4)c-3cn(Cc3cccc(F)c3)c2cc1OC,inconclusive: 173%
7,O=C(Nc1ccccc1)Nc1cccc2cccnc12,inconclusive: 97%
8,O=C(NNC(=S)NC(=O)c1cccs1)c1ccc(NC(=O)c2ccccc2)cc1,inconclusive: 92%
9,O=C1/C(=C\c2ccc(-c3ccccc3[N+](=O)[O-])o2)C(c2ccccc2)=NN1c1ccccc1,inconclusive: 89%
10,COC(C(=O)NC1CC1)c1ccccc1 (centres undefined),inconclusive: 103%
11,NC(=O)C1CCN(C(=O)COc2ccc(S(=O)(=O)NCc3ccccc3)cc2Cl)CC1,inconclusive: 98%
12,Cc1nccn1CCCNC(=O)CC1C(=O)NCCN1Cc1ccc(Cl)c(F)c1 (centres undefined),inconclusive: 93%
13,COCCOc1cc(-n2ccnc2SC)c(Cl)cc1Cl,inactive: 97%
14,O=C(O)c1cccnc1SCc1cccc(Cl)c1,active: 125% [activator]
15,COCCCN1C(=O)C(=O)/C(=C(/O)c2ccc(C)cc2)C1/C=C/c1ccccc1 (centres undefined),inconclusive: 91%
16,O=C(CCC(=O)N(CC(=O)NC1CCCC1)C1CCCCC1)Nc1ccccn1,inactive: 101%
17,O=C(Nc1ccccc1F)c1ccccc1-c1ccccc1,active: 76%
18,O=C(NC(NCc1ccccn1)(C(F)(F)F)C(F)(F)F)c1ccco1,inconclusive: 105%
19,O=C(O)c1cn(Cc2ccccc2Cl)c2ccc(S(=O)(=O)N3CCOCC3)cc2c1=O,inconclusive: 94%
20,Cc1cc(-c2n[nH]c(=S)n2/N=C/c2cc([N+](=O)[O-])ccc2Cl)n[nH]1,active: 77%

row,Compound,GTP binding activity
1,CCCN1C(=O)/C(=C\C=C2/Sc3ccccc3N2CC)SC1=S,active: 68%
2,CCOc1ccc(-n2c(SCC(=O)Nc3ccc(OC)cc3OC)nc3c(c2=O)SCC3)cc1,inconclusive: 103%
3,CCOC(=O)N1CCN(C(=O)C2CCCN(S(=O)(=O)c3ccc(C)cc3)C2)CC1 (centres undefined),inconclusive: 101%
4,COc1cc(/C=N/N=C2/SCC(=O)N2c2ccc(O)cc2)ccc1O,inactive: 95%
5,O=C(N/C=C/c1ccccc1)Nc1ccc(Cl)cc1,inconclusive: 97%
6,Cc1cc(NC(=O)CSc2nnc(-c3cccnc3)n2Cc2ccccc2)no1,inconclusive: 94%
7,COc1ccc(/C=N/Nc2nnc(Cc3ccc(OC)c(OC)c3)c(=O)[nH]2)cc1OC,inconclusive: 82%
8,NS(=O)(=O)c1ccc(NC(=O)N[C@@H](Cc2ccccc2)C(=O)O)cc1,inconclusive: 103%
9,CCNC(=S)N(Cc1cccs1)Cc1cc2cc(OCC)ccc2[nH]c1=O,inconclusive: 188%
10,COc1ccc(C)cc1NC(=O)COC(C)=O,inactive: 105%
11,O=C(CCn1cnc2ccccc2c1=O)Nc1cccc(Cl)c1Cl,inconclusive: 92%
12,CC(C)N(C)C(=O)CCc1nnc(CCc2c[nH]c3ccccc23)o1,inactive: 93%
13,Cc1nnc(NC(=O)c2ccccc2F)s1,inconclusive: 95%
14,CCCC(=O)NCn1nnc(-c2ccc(Cl)cc2)n1,inconclusive: 223%
15,Cn1c(CCNC(=O)c2ccc(Cl)c(Cl)c2)nnc1SCc1ccc(Cl)c(Cl)c1,inconclusive: 93%
16,CCN(CC(=O)NC(C)C)C(=O)C(CCSC)NC(=O)c1cccc(C)c1 (centres undefined),inactive: 98%
17,CCN(CC)CCCNc1ncnc2ccccc12,inconclusive: 95%
18,COc1ccc(S(=O)(=O)Nc2ccccc2C(N)=O)cc1OC,inactive: 102%
19,O=C(O)Cn1nnc(-c2cccs2)n1,inconclusive: 109%
